The test system of the assay is Human lymphoma cell line KARPAS-299. Description: cells. As to conditions: KARPAS-299, 96 h, read-out: Inhibitory activity on Karpas-299 cell growth IC50.
On to `CN(C)CC(=O)Nc1cc2c(cc1OC1CCN(C)CC1)C(C)(C)c1[nH]c3cc(C#N)ccc3c1C2=O` [Compound D3-3, N-[3-Cyano-6,6-dimethyl-8-(1-methyl-piperidin-4-yloxy)-11-oxo-6,11-dihydro-5H-benzo[b]carbazol-9-yl]-2-dimethylamino-acetamide], for which the IC50 (as a rule, the concentration that gives 50% inhibition) was 132 nM.
On to `CNS(=O)(=O)N1CCC(c2ccc3c(c2)C(C)(C)c2[nH]c4cc(C#N)ccc4c2C3=O)CC1` [Compound B4-4, 4-(3-Cyano-6,6-dimethyl-11-oxo-6,11-dihydro-5H-benzo[b]carbazol-8-yl)-piperidine-1-sulfonic acid methylamide], for which the IC50 came out at 81.2 nM.
Take `CCOCCOC1CCN(c2cc3c(cc2CC)C(=O)c2c([nH]c4cc(C#N)ccc24)C3(C)C)CC1` [PR9-23, 8-[4-(2-Ethoxy-ethoxy)-piperidine-1-yl]-9-ethyl-6,6-dimethyl-11-oxo-6,11-dihydro-5H-benzo[b]carbazole-3-carbonitrile]: the 50% inhibitory concentration (IC50) amounted to 20.5 nM.
For `O=C1c2ccc(OC[C@@H](O)[C@H](O)CO)cc2C2(CCCCC2)c2oc3ccccc3c21` [GT18-4, 8-((2R,3R)-2,3,4-trihydroxybutoxy)-11H-spiro[benzo[b]naphtho[2,3-d]furan-6,1′-cyclohexane]-11-one], the IC50 amounted to 2010 nM.
Next, `CCc1cc2c(cc1N1CCN(C(=O)C(C)C)CC1)C(C)(C)c1[nH]c3cc(C#N)ccc3c1C2=O` [Compound E9-5, 9-Ethyl-8-(4-isobutyryl-piperazin-1-yl)-6,6-dimethyl-11-oxo-6,11-dihydro-5H-benzo[b]carbazole-3-carbonitrile]: 41 nM.
Turning to `CCc1cc2c(cc1N1CCN(C3(C#N)CCCCC3)CC1)C(C)(C)c1[nH]c3cc(C#N)ccc3c1C2=O` [Compound E9-9, 8-[4-(1-Cyano-cyclohexyl)-piperazin-1-yl]-9-ethyl-6,6-dimethyl-11-oxo-6,11-dihydro-5H-benzo[b]carbazole-3-carbonitrile], the IC50 worked out at 4 nM.
For `CC1(C)c2cc(N3CCN(C4COC4)CC3)c(CCCN3CCN(C4COC4)CC3)cc2C(=O)c2c1[nH]c1cc(C#N)ccc21` [Compound F6-6, 6,6-Dimethyl-8-(4-oxetan-3-yl-piperazin-1-yl)-9-[3-(4-oxetan-3-yl-piperazin-1-yl)-propyl]-11-oxo-6,11-dihydro-5H-benzo[b]carbazole-3-carbonitrile], the concentration for half-maximal inhibition (IC50) was 36.4 nM.
For `CC1(C)c2cc(OC[C@@H](O)[C@H](O)CO)ccc2C(=O)c2c1oc1cc(OC(=O)Nc3ccccc3)ccc21` [GT13-24, Phenyl-carbamic acid 6,6-dimethyl-11-oxo-8-((2R,3R)-2,3,4-trihydroxy-butoxy)-6,11-dihydro-benzo[b]naphtho[2,3-d]furan-3-yl ester], the IC50 came to 3950 nM.
Then `CC1(C)c2cc(N3CCOCC3)c(OCCO)cc2C(=O)c2c1[nH]c1cc(C#N)ccc21` [Compound K10-7, 9-(2-Hydroxy-ethoxy)-6,6-dimethyl-8-morpholin-4-yl-11-oxo-6,11-dihydro-5H-benzo[b]carbazole-3-carbonitrile], with 51.8 nM; and `CC1(C)c2cc(N3CCN(C4CCC4)CC3)c(C3CC3)cc2C(=O)c2c1[nH]c1cc(C#N)ccc21` [Compound F5-46, 8-(4-Cyclobutyl-piperazin-1-yl)-9-cyclopropyl-6,6-dimethyl-11-oxo-6,11-dihydro-5H-benzo[b]carbazole-3-carbonitrile], with 28.9 nM.
On to `CC1(C)c2cc(N3CCC(N4CCCC4)CC3)ccc2C(=O)c2c1[nH]c1cc(C#N)ccc21` [Compound B2-4, 6,6-Dimethyl-11-oxo-8-(4-pyrrolidin-1-yl-piperidin-1-yl)-6,11-dihydro-5H-benzo[b]carbazole-3-carbonitrile], for which the IC50 turned out to be 36.5 nM.
On to `COCCOCCN1CCN(c2cc3c(cc2Br)C(=O)c2c([nH]c4cc(C#N)ccc24)C3(C)C)CC1` [Compound F4-4, 9-Bromo-8-{4-[2-(2-methoxy-ethoxy)-ethyl]-piperazin-1-yl}-6,6-dimethyl-11-oxo-6,11-dihydro-5H-benzo[b]carbazole-3-carbonitrile], for which the IC50 came out at 7.1 nM.
For `CCN(CC)CCOc1ccc2c(c1)C(C)(C)c1[nH]c3cc(NC(=O)C(C)(C)C)ccc3c1C2=O` [GT5-6, N-[8-(2-Diethylamino-ethoxy)-6,6-dimethyl-11-oxo-6,11-dihydro-5H-benzo[b]carbazol-3-yl]-2,2-dimethyl-propionamide], the IC50 amounted to 8230 nM.
Regarding `N#Cc1ccc2c3c([nH]c2c1)C1(CCOCC1)c1cc(OC2CCNCC2)ccc1C3=O` [Compound N6-2, 11-Oxo-8-(piperidin-4-yloxy)-2′,3′,5,5′,6′,11-hexahydrospiro[benzo[b]carbazole-6,4′-pyran]-3-carbonitrile], the IC50 came out at 24.8 nM.
Then `COc1cc2c(cc1S(=O)(=O)C(C)C)C(=O)c1c([nH]c3cc(C#N)ccc13)C2(C)C` [Compound E5-3, 8-Methoxy-6,6-dimethyl-11-oxo-9-(propane-2-sulfonyl)-6,11-dihydro-5H-benzo[b]carbazole-3-carbonitrile], with 190 nM; and `CCN(CC)CCOc1ccc2c(c1)C(C)(C)c1[nH]c3cc(NC(=O)COc4ccccc4)ccc3c1C2=O` [GT5-13, N-[8-(2-Diethylamino-ethoxy)-6,6-dimethyl-11-oxo-6,11-dihydro-5H-benzo[b]carbazol-3-yl]-2 phenoxy-acetamide], with 1330 nM; and `CC(C)OCC#Cc1cc2c(cc1N1CCN(C3COC3)CC1)C(C)(C)c1[nH]c3cc(C#N)ccc3c1C2=O` [Compound F6-13, 9-(3-Isopropoxy-prop-1-ynyl)-6,6-dimethyl-8-(4-oxetan-3-yl-piperazin-1-yl)-11-oxo-6,11-dihydro-5H-benzo[b]carbazole-3-carbonitrile], with 7.9 nM.
As to `CC1(C)c2cc(N3CCN(C4COC4)CC3)c(CCCN3CCOCC3)cc2C(=O)c2c1[nH]c1cc(C#N)ccc21` [Compound F6-11, 6,6-Dimethyl-9-(3-morpholin-4-yl-propyl)-8-(4-oxetan-3-yl-piperazin-1-yl)-11-oxo-6,11-dihydro-5H-benzo[b]carbazole-3-carbonitrile], the IC50 worked out at 77.6 nM.
Turning to `CC1(C)c2cc(N3CCN(C4CCSCC4)CC3)c(Br)cc2C(=O)c2c1[nH]c1cc(C#N)ccc21` [Compound F4-6, 9-Bromo-6,6-dimethyl-11-oxo-8-[4-(tetrahydro-thiopyran-4-yl)-piperazin-1-yl]-6,11-dihydro-5H-benzo[b]carbazole-3-carbonitrile], the IC50 turned out to be 29.1 nM.
Consider `CC(C)N1CCC(c2ccc3c(c2)C(=O)c2c([nH]c4cc(C#N)ccc24)C3(C)C)CC1` [Compound J9-3, 9-(1-Isopropyl-piperidin-4-yl)-6,6-dimethyl-11-oxo-6,11-dihydro-5H-benzo[b]carbazole-3-carbonitrile], for which the half-maximal inhibitory concentration (IC50) is 53.2 nM.
Then `CCN(CC)CCOc1ccc2c(c1)C(C)(C)c1sc3ccccc3c1C2=O` [Compound Z7, 8-(2-Diethylamino-ethoxy)-6,6-dimethyl-6H-benzo[b]naphth[2,3-d]thiophen-11-one], with 1190 nM; and `COc1ccc2c(c1)C(C)(C)c1[nH]c3c(O)c(C#N)ccc3c1C2=O` [Compound U9, 4-Hydroxy-8-methoxy-6,6-dimethyl-11-oxo-6,11-dihydro-5H-benzo[b]carbazole-3-carbonitrile], with 407 nM.

(Values after patent US9126931B2 (priority 2009, dated 2015).)
